From ChEMBL document CHEMBL4888484, “Replenishing the malaria drug discovery pipeline: Screening and hit evaluation of the MMV Hit Generation Library 1 (HGL1) against asexual blood stage Plasmodium falciparum ,using a nano luciferase reporter read-out” (2022) come the findings set out here.

As usually defined, the % Inhibition is the relative decrease from the control value, in per cent.

About 540 (0.36%) of roughly 150,000 compounds showed an effect of 50% or more. This is one part of the list.

In this experiment the test system is Plasmodium falciparum. The experiment in a line: Primary screen in NF54 nanoGlo assay, in single point, at 2uM, 72h; a lower Z score goes with more inhibition. The note with it: timepoint 72 hour. The experiment is classed as functional, Erythrocyte.

As to `Cn1nnnc1NC/C=C/c1ccccc1`, where the note is “2 µM”, the “% Inhibition” value was -11%.

For `Cc1cnc(CN[C@@H](C)c2ncc(C)s2)o1`, the “% Inhibition” value came to 2% and the Z score was -0.27.

With `Cc1ccc(NC(=O)CS(=O)(=O)Cc2noc(CC(C)C)n2)cc1F`, the “% Inhibition” value is listed as -13% and the Z score worked out at 1.63.

Regarding `O=C(O)c1cccnc1CN1CCC2(c3ccccc3)C(C1)C2(F)F` (configuration not stated), the “% Inhibition” value amounted to 7% and the Z score is listed as -1.33.

Turning to `Cc1ccc(-c2cc3n(n2)CCC(=O)N3CC(=O)NCc2ccccc2)cc1`, the “% Inhibition” value is 0% and the Z score is reported as -0.05.

For `CC(C)NC(=O)c1nsc(C(=O)NCc2ccc3c(c2)OCO3)c1N`, the “% Inhibition” value is -17% and the Z score was determined as 1.64.

Regarding `N#Cc1ccc(N2CCN(CC(=O)Nc3nncs3)CC2)cn1`, the “% Inhibition” value was -12% and the Z score stood at 1.55.

As for `Cc1ncsc1CN[C@@H](C)c1cc2n(n1)CCC2`, the “% Inhibition” value is -13% and the Z score came out at 2.48.

Regarding `O=C(Cn1cc(Cl)cn1)N1CC(Cc2ccoc2)C1`, the “% Inhibition” value is reported as -19% and the Z score turned out to be 2.02.

With `O=S(=O)(N[C@H]1CCN(c2cc(N3CCOCC3)cnn2)C1)c1ccccc1`, the “% Inhibition” value was -10% and the Z score worked out at 1.44.

For `Cc1cc(C(=O)Nc2ccc(Cl)c(F)c2N2CCOCC2)[nH]n1`, the “% Inhibition” value is -6% and the Z score worked out at 0.79.

`Cc1ccc(CN2CCC(Oc3ccc(Cl)cc3)(C(=O)O)CC2)s1`: the “% Inhibition” value is recorded as 0% and the Z score amounted to 0.03.

With `Cc1noc(C)c1S(=O)(=O)N(C)C1CCCC(C)C1` (configuration not stated), the “% Inhibition” value is given as -47% and the Z score was found to be 5.53.

With `C[C@H]1c2ccsc2CCN1C(=O)c1cc(C(=O)O)ccn1`, the “% Inhibition” value is on record as 0% and the Z score was -0.03.

For `O=C1N(C2CCCCC2)C[C@H]2CN(Cc3ccc(C(F)(F)F)cc3)CCN12`, the “% Inhibition” value amounted to 14% and the Z score was -2.27.

For the compound `CC[C@H](C)c1ccc(O)c(NC(=O)COc2ccc(C)cc2-n2cnnc2)c1`, the “% Inhibition” value is recorded as -4% and the Z score was 0.49.

For `Cc1ccc(N(C)S(=O)(=O)c2cc(N(C)S(=O)(=O)c3ccccc3)c(C)cc2C)cc1`, the “% Inhibition” value was -2% and the Z score was determined as 0.22.

In the case of `Cc1ccc(CN2CCN(Cc3cccc(O)c3)[C@H]3CS(=O)(=O)C[C@H]32)o1`, the “% Inhibition” value is given as -7% and the Z score turned out to be 0.91.

On to `CNC(=O)NC(=O)C(C)N1C[C@H]2CCCC[C@@]2(C(=O)OC)C1` (some centres not stated), for which the “% Inhibition” value was -10% and the Z score is 1.03.

For `Cc1cccc(NC(=O)c2nc3c(=O)n(Cc4ccccc4C)c4cc(C)ccc4n3n2)c1`, the “% Inhibition” value was determined as 3% and the Z score is recorded as -0.35.

On to `COc1ccc(-c2nc3cc(C)ccc3cc2CN2CCC[C@H]2C(N)=O)cc1OC`, for which the “% Inhibition” value is -6% and the Z score worked out at 0.74.

For `Cn1c2c(c(=O)n3ncc(C(=O)N4CCN(C5CCCCC5)CC4)c13)CN(Cc1ccccc1)CC2`, the “% Inhibition” value is listed as -2% and the Z score stood at 0.32.

On to `O=C(OCC(=O)N1CCC(Cc2ccccc2)CC1)c1ccncc1`, for which the “% Inhibition” value is -9% and the Z score was determined as 1.08.

For `CCOC(=O)c1cnn(-c2nc3ccccc3s2)c1CN1CCC(O)(c2ccc(Cl)cc2)CC1`, the “% Inhibition” value was -11% and the Z score turned out to be 1.27.

Take `COc1cccc(C(=O)N2CCN(C(=O)c3ccc(-n4nc(C)cc4C)cc3)CC2)c1`: the “% Inhibition” value is -8% and the Z score stood at 0.8.

With `CC[C@H](C)Cc1n[nH]c(-c2cnc(C)[nH]c2=O)n1`, the “% Inhibition” value was -3% and the Z score amounted to 0.63.

As for `C[N+]1(C[C@@H](C(=O)c2ccccc2)c2ccccc2)CCCCCC1`, the “% Inhibition” value was -14% and the Z score is recorded as 1.23.

For the compound `O=C(NCC[C@H]1CCCO1)[C@H]1CC[C@H](Nc2cnccn2)CC1`, the “% Inhibition” value is -8% and the Z score was found to be 1.57.

In the case of `Cc1ccc(C(=O)N2CCN(CC3CC3)[C@@H]3CS(=O)(=O)C[C@@H]32)c(C)c1`, the “% Inhibition” value was -8% and the Z score is 1.11.

Consider `COCCn1ccc2ccn(Cc3nc(C4CCCCC4)no3)c(=O)c21`, for which the “% Inhibition” value is -23% and the Z score was found to be 1.99.

Regarding `Cc1cc(-c2ccc(F)cc2Cl)c(=O)[nH]n1`, the “% Inhibition” value was -19% and the Z score is recorded as 2.08.

With `CN1CCOc2ccc(NC(=O)N[C@H]3CCCC3(C)C)cc21`, the “% Inhibition” value is on record as -2% and the Z score came out at 0.19.

For `CCc1ccc(C(=O)N[C@H]2CCCN(CC)C2)[nH]1`, the “% Inhibition” value is -10% and the Z score is listed as 1.71.

On to `Clc1snnc1CN1CCN(Cc2ccccc2)CC1`, for which the “% Inhibition” value stood at 1% and the Z score is -0.1.

For `COc1ccc(NCc2nnc3n2CCCCC3)cc1Cl`, the “% Inhibition” value was -45% and the Z score worked out at 5.28.

For the compound `CCc1nnsc1C(=O)Nc1cnccc1-n1ccnc1`, the “% Inhibition” value is -9% and the Z score worked out at 1.25.

Consider `Cn1nnc2c(=O)n(CC(=O)N3CCC(Cc4ccccc4)CC3)cnc21`, for which the “% Inhibition” value is reported as -4% and the Z score is on record as 0.59.

Turning to `Cc1c(C(=O)NCC(C)(CO)CO)nnn1CC1CCCC1`, the “% Inhibition” value was -9% and the Z score was 1.13.

`COc1ncccc1NC(=O)c1cc(-c2ccc3c(c2)OCCO3)nc2c1cnn2C(C)C`: the “% Inhibition” value is on record as -7% and the Z score is 0.89.

In the case of `CCn1ccc(C(=O)N2CC[C@H](Cc3nncn3CC)C2)n1`, the “% Inhibition” value is -8% and the Z score is recorded as 1.31.

As to `Cc1cc(C(=O)N2CCC(C(N)=O)CC2)sc1-c1ccccc1`, the “% Inhibition” value is recorded as -13% and the Z score turned out to be 1.69.

Consider `COc1c(C(=O)Nc2ccccc2)oc2ccc(NC(=O)Cc3cccc(Cl)c3)cc12`, for which the “% Inhibition” value is given as 1% and the Z score is on record as -0.14.

Regarding `C[C@@H](CNC(=O)N1CCC1)CN(C)C(=O)OC(C)(C)C`, the “% Inhibition” value is reported as -11% and the Z score worked out at 1.43.

Regarding `CCc1nc(CNC(=O)c2ccc(C)nc2OC)n[nH]1`, the “% Inhibition” value is -13% and the Z score stood at 1.29.

Take `COc1ccc(CC(=O)N[C@@H]2[C@H]3CCO[C@H]3[C@H]2Cc2ccccc2)cc1`: the “% Inhibition” value is 10% and the Z score is -1.26.

Take `CCN1CC(=O)N[C@@H]1c1ccnn1CC`: the “% Inhibition” value is listed as -12% and the Z score is 1.25.

For `CCN(CC)S(=O)(=O)N1CCC2(CC1)OCCc1ccsc12`, the “% Inhibition” value was -6% and the Z score is reported as 0.87.

In the case of `COCCN1CCC2(CCC1=O)CCN(C(=O)CC1CCCC1)CC2`, the “% Inhibition” value is listed as -11% and the Z score was 1.23.

For the compound `CN(C1CCCCC1)S(=O)(=O)N1CCC[C@H](C(=O)NCc2cccc(Br)c2)C1`, the “% Inhibition” value is reported as -13% and the Z score is listed as 1.23.

As to `Cc1cc(N[C@@H](C)CS(C)(=O)=O)cc(C)c1Br`, the “% Inhibition” value is 12% and the Z score is listed as -1.45.

Take `CCOCCC(=O)N[C@@H](C)c1nnc(C(C)C)o1`: the “% Inhibition” value is 10% and the Z score is on record as -1.27.

As to `Cc1cc2[nH]c(=O)[nH]c2c(NC(=O)CC[C@H](C)N2CCN(C)CC2)c1C`, the “% Inhibition” value is recorded as -10% and the Z score came out at 1.61.

For the compound `Cn1ccc(-c2n[nH]c(=O)n2CC2CCCCC2)n1`, the “% Inhibition” value was -9% and the Z score is recorded as 1.33.

Turning to `O=C(CCc1cc2n(n1)CCNC2)Nc1cccc(-c2cnc[nH]2)c1`, the “% Inhibition” value is recorded as -2% and the Z score was determined as 0.22.
